Measurements published in PubChem BioAssay AID624417 (National Center for Advancing Translational Sciences (NCATS), 2012).
About 6,400 (1.6%) of roughly 410,000 compounds were called active. The inconclusive results got no clear call from the source; some entries with a clear call stand among them for comparison. Calls follow the shape of the dose curve; as a rule, active = well fitted inhibition curve with a large enough effect; inconclusive = small, poorly fitted or top-dose-only effect; inactive = no such curve, though single readings can be large or run the other way. No potency is given beside an inconclusive call; the fits are too rough.

target: Glucagon-like peptide 1 receptor (Homo sapiens) (UniProt P43220); assay: qHTS of GLP-1 Receptor Inverse Agonists (Inhibition Mode); conditions: HEK293 GLP-1R CRE-luciferase, luminescence, 24 h, GLP-1R form is constitutively active; series mostly up to 38.3 µM; also: nearly all actives have a fitted effect of over 55% in size
In short: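 GLP-1R inverse agonism mode: basal reporter luminescence in engineered HEK293 cells measured after one day of compound exposure at 37 deg C, with a 12 min room-temperature detection step.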
Potency is read from the fitted curve at half-maximal effect; tags tell the direction and shape of the fitted curve.

Sequence of UniProt P43220 (P43220 whole entry, looked up): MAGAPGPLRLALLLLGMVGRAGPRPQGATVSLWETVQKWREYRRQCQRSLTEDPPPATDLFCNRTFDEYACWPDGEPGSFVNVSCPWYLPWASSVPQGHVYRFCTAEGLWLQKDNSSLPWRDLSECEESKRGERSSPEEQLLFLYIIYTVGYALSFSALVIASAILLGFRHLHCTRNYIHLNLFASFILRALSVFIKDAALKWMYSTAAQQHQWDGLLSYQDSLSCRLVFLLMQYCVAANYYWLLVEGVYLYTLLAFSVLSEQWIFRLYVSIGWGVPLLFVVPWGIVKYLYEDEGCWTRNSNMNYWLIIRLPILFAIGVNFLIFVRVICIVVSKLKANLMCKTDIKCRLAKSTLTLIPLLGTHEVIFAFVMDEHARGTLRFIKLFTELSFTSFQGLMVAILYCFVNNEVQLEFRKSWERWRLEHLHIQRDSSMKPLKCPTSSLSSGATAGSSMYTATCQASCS

Row | Structure (SMILES) | Potency
1 | Cc1ccccc1Nc1scc(-c2ccc(Cl)cc2)[n+]1-c1ccccc1C | active: 10 µM
2 | Cc1cccc(C(=O)Nc2ccccc2OCc2cc(=O)n3cc(C)ccc3n2)c1 | inactive
3 | COc1ccc(CCN2C(=S)N(C)C(=O)C2CC(=O)Nc2ccc(F)cc2)cc1 (centres undefined) | inconclusive [inhibitor, partial curve, poor fit]
4 | COC(=O)[C@H](Cc1ccccc1)N1C/C=C\COc2c(Cl)cc(Cl)cc2S1(=O)=O | inconclusive [inhibitor, single point]
5 | Cc1ccc2c(c1)CCCN2C(=O)c1ccoc1C | inconclusive [inhibitor, single point]
6 | C#CCN(C(=O)c1ccc(OC2CCN(Cc3ccccn3)CC2)cc1)C1CCCCC1 | inconclusive [inhibitor, partial curve, poor fit]
7 | COc1ccc(C(=O)Nc2cc(OC)c(NC(=O)Nc3ccccc3)cc2OC)cc1 | inconclusive [inhibitor, partial curve]
8 | Cc1ccc(CN2CCC(CNC(=O)Nc3cccc(C)c3C)C2)cc1 (centres undefined) | inconclusive [inhibitor, single point]
9 | CNC(=S)N(Cc1ccc2c(c1)OCO2)C1CC(=O)N(c2ccccc2)C1=O (centres undefined) | inconclusive [inhibitor, single point]
10 | CCc1ccc(CN2CCC(C(=O)Nc3cccc(-c4nnc(C)s4)c3)CC2)o1 | inconclusive [inhibitor, partial curve, poor fit]
11 | COc1ccc(NC(=O)CCc2c(C)nc3cc(-c4cccc(F)c4)nn3c2C)cc1Cl | inactive
12 | CC(=O)Nc1cccc(C(=O)N/N=C/c2ccccc2F)c1 | inconclusive [inhibitor, single point]
13 | Cc1ccc(-n2cc(CNC(C)c3cnn(C)c3)c(-c3ccc(F)cc3)n2)cc1 (centres undefined) | inconclusive [inhibitor, partial curve, poor fit]
14 | C=C(C)CSc1nc2sc3c(c2c(=O)n1C1CCCCC1)CCN(C)C3 | inconclusive [inhibitor, single point]
15 | CN(c1ccccc1)S(=O)(=O)c1cccc(NC(=O)Cc2ccc(Cl)cc2)c1 | inconclusive [inhibitor, partial curve, poor fit]
16 | COc1cccc(C2=NN(C(=O)c3cccs3)C(O)(C(F)(F)F)C2)c1 (centres undefined) | inconclusive [inhibitor, partial curve, poor fit]
17 | CCNC(=S)NNC(=O)c1c(Cl)c(C)nn1C | inactive
18 | CCOC(=O)/C(C(N)=NC)=C(\O)c1ccccc1 | inactive
19 | OCC1(Cc2ccc(F)cc2)CCCN(CCCC(F)(F)F)C1 (centres undefined) | inconclusive [inhibitor, partial curve, poor fit]
20 | CN(C)NC(=S)NC1CC2CCC1C2 (centres undefined) | inconclusive [inhibitor, single point]
21 | CCC(C)[C@H](NC(=O)N1CCn2c1nc1ccccc12)C(=O)NCc1ccc(OC)cc1 (some centres undefined) | inconclusive [inhibitor, partial curve, poor fit]
22 | COc1ccc(NS(=O)(=O)c2ccc(C(=O)N3CCC(C)CC3)cc2)cc1 | inconclusive [inhibitor, single point]

Row | Structure (SMILES) | Potency
23 | COc1ccccc1CNC(=O)COc1ccccc1C | inconclusive [inhibitor, single point]
24 | CSc1ncccc1C(=O)OCC(=O)NC12CC3CC(CC(C3)C1)C2 | inconclusive [inhibitor, single point]
25 | CCOCCCNC(=S)N1CCN(c2nc(-c3ccc(F)cc3)cs2)CC1 | inconclusive [inhibitor, single point]
26 | CCCOc1c(Cl)cc(C(=O)Nc2ccc3c(c2)OCO3)cc1OCC | inconclusive [inhibitor, partial curve, poor fit]
27 | Cc1cc(C)c(NC(=O)C2CCCN(C(=O)c3cnn(-c4ccccc4)c3-n3cccc3)C2)c(C)c1 (centres undefined) | inconclusive [inhibitor, single point]
28 | CCc1ccccc1NC(=O)c1ccc2c(c1)c(C)c(C)n2Cc1ccccc1 | inconclusive [inhibitor, partial curve, poor fit]
29 | COc1ccc(Oc2cnc3ccccc3n2)cc1 | inconclusive [inhibitor, partial curve, poor fit]
30 | O=C(c1ccc(-c2ccccc2)cc1)N1CCN(C(=O)c2ccco2)CC1 | inconclusive [inhibitor, single point]
31 | COc1cccc(CNC(=O)N2CCN(c3ccccc3C)CC2)c1 | inconclusive [inhibitor, full curve, poor fit]
32 | O=C(Nc1ccc(Cl)cc1)OCCn1nnnc1C(c1ccccc1Cl)N1CCOCC1 (centres undefined) | inconclusive [inhibitor, partial curve, poor fit]
33 | O=C1OCCN1C(=O)[C@H]1[C@H](c2ccc(F)cc2)C(c2cccc(Cl)c2)=NN1c1ccc(Br)cc1 | active: 8.91 µM
34 | Cc1ccc(OCc2nc3ccccc3n2C(C)C(=O)Nc2c(C)cccc2C)cc1 (centres undefined) | inconclusive [inhibitor, single point]
35 | Cc1cc(C)cc(NC(=O)NCc2c(-c3ccccc3)noc2C)c1 | inactive
36 | Cc1ccc(C)c(OCCC(=O)OCC(=O)Nc2cc(S(=O)(=O)N3CCCCC3)ccc2C)c1 | inconclusive [inhibitor, single point]
37 | Oc1ccc2ccccc2c1/C=N/Nc1ccccc1 | inconclusive [inhibitor, full curve]
38 | CC(=O)Nc1ccc2nc(SCCOc3ccccc3Cl)sc2c1 | inconclusive [inhibitor, single point]
39 | COc1cccc(C2CC(c3ccc(Br)cc3)=NN2C(=O)c2ccncc2)c1OC (centres undefined) | active: 10 µM
40 | CC(C)Nc1nnc(SCC(=O)Nc2ccc3c(c2)C(=O)c2ccccc2C3=O)s1 | inconclusive [inhibitor, single point]
41 | COc1ccc(OCc2cc(C(=O)NCC3CCCCO3)no2)c(Cl)c1 (centres undefined) | inconclusive [inhibitor, partial curve, poor fit]
42 | CCC(C)c1ccc(NC(=S)N2CCCC2)cc1 (centres undefined) | inconclusive [inhibitor, partial curve, poor fit]
43 | CC(C)C1CC(c2ccccc2)(C(CN)CO)CCO1 (centres undefined) | inconclusive [inhibitor, single point]
44 | Cc1cc(C)cc(CC2CC(=O)N(c3ccc4c(c3)OCCO4)C2=O)c1 (centres undefined) | inconclusive [inhibitor, single point]

Row | Structure (SMILES) | Potency
45 | N#CC1=C(S)N(c2ccc(F)cc2)C2(CCCCC2)NC1=O | inconclusive [inhibitor, single point]
46 | COc1cc(NC(=O)c2ccc(Cl)cc2Cl)ccc1-c1cc2ccccc2oc1=O | inactive
47 | COc1ccc(C(=O)C2CCN(C(=S)Nc3ccc(F)cc3)CC2)cc1 | inconclusive [inhibitor, partial curve, poor fit]
48 | NC(Cc1ccccc1)C(O)(c1ccccc1)c1ccccc1 (centres undefined) | inconclusive [inhibitor, single point]
49 | O=C(CCC(=O)N1CCN(c2ccccn2)CC1)c1cccs1 | inconclusive [inhibitor, single point]
50 | O=C(Cn1cc(S(=O)(=O)Cc2ccccc2Cl)c2ccccc21)Nc1ccc(F)cc1F | inconclusive [inhibitor, single point]
51 | N#Cc1cccc(NC(=O)C2CCCN(C(=O)c3ccc(Cl)cc3)C2)c1 (centres undefined) | inconclusive [inhibitor, single point]
52 | O=S(=O)(Nc1cccc(-c2cn3cccnc3n2)c1)c1ccc(F)cc1 | inactive
53 | CCc1ccc(N(CC(=O)NCc2cccnc2)S(=O)(=O)c2ccccc2)cc1 | inactive
54 | COc1ccc(S(=O)(=O)N2CCCCC2)cc1NCC(=O)Nc1ccc(C)cc1 | active: 8.91 µM
55 | CC(C)CNC(=O)N1c2ccccc2Sc2ccccc21 | inconclusive [inhibitor, partial curve, poor fit]
56 | Cc1cc(C)n(-c2ccc(C(=O)OCc3ccccc3)cc2)n1 | inconclusive [inhibitor, single point]
57 | Cc1nc2c(o1)C(=O)c1ccccc1C2=Nc1ccccc1 | inconclusive [inhibitor, full curve]
58 | CC(=O)Nc1cccc(-c2ccnc3c2CC(C(=O)NCc2cccs2)O3)c1 (centres undefined) | inconclusive [inhibitor, full curve]
59 | CCOC(=O)c1c(-c2cccc3ccccc23)csc1NC(=O)C1C2CCC(O2)C1C(=O)O (centres undefined) | inconclusive [inhibitor, partial curve, poor fit]
60 | COc1ccc(C(=O)Nc2cc(-c3ccccc3)nn2-c2ccccc2F)cc1 | inconclusive [inhibitor, single point]
61 | Cc1nn(-c2ccccc2)c(C)c1/C=N/NC(=O)CSc1nnc(SCc2cccc3ccccc23)s1 | inconclusive [inhibitor, partial curve, poor fit]
62 | Cc1ccc(NC(=O)CCn2c(=S)oc3ccccc32)cc1F | inactive
63 | CCCCN(Cc1cccs1)S(=O)(=O)c1csc(C(N)=O)c1 | inconclusive [inhibitor, single point]
64 | CC(=O)N1CCc2c(sc(NC(=O)CSc3ccc(F)cc3)c2-c2nc3ccccc3s2)C1 | inactive
